# Measured values from a collection of fitness landscapes (doi:10.1126/science.1257360).
# The list shows a part of the results.
# B1: PhoQ; a variant is named by its letters at X, in order, P23837 (parent)
# chain: MKKLLRLFFPLSLRVRFLLATAAVVLVLSLAYGMVALIGYSVSFDKTTFRLLRGESNLFYTLAKWENNKLHVELPENIDKQSPTMTLIYDENGQLLWAQRDVPWLMKMIQPDWLKSNGFHEIEADVNDTSLLLSGDHSIQQQLQEVREDDDDAEMTHSVAVNVYPATSRMPKLTIVVVDTIPVELKSSYMVWSWFIYVLSANLLLVIPLLWVAAWWSLRPIEALAKEVRELEEHNRELLNPATTRELTSLVRNLNRLLKSERERYDKYRTTLTDLTHSLKTPLXXLQXXLRSLRSEKMSVSDAEPVMLEQISRISQQIGYYLHRASMRGGTLLSRELHPVAPLLDNLTSALNKVYQRKGVNISLDISPEISFVGEQNDFVEVMGNVLDNACKYCLEFVEISARQTDEHLYIVVEDDGPGIPLSKREVIFDRGQRVDTLRPGQGVGLAVAREITEQYEGKIVAGESMLGGARMEVIFGRQHSAPKDE
# Variants of: B1
# Test: enrichment ratio after two sorts for PhoP signalling (ratio (wild type AVST 3.29)); higher = more functional
# Conditions: with PhoP (E. coli)
row,Variant,enrichment ratio
1,GRTH,≤ 0.25
2,PDET,≤ 0.25
3,GIMC,17.3
4,EHPG,≤ 0.25
5,VRHD,≤ 0.25
6,IVSK,≤ 0.25
7,FDYW,≤ 0.25
8,RVRW,≤ 0.25
9,TKGT,≤ 0.25
10,KHHM,≤ 0.25
11,KFIT,≤ 0.25
12,GHVI,≤ 0.25
13,SGRK,≤ 0.25
14,ARIC,≤ 0.25
15,WDTT,≤ 0.25
16,IWMS,≤ 0.25
17,QMYS,≤ 0.25
18,MSAL,9.18
19,KIPD,≤ 0.25
20,RNYA,≤ 0.25
21,NLGC,≤ 0.25
22,MRFH,≤ 0.25
23,MISK,≤ 0.25
24,SNSS,10.8

row,Variant,enrichment ratio
1,VEPM,≤ 0.25
2,ASLH,11.2
3,NQHR,≤ 0.25
4,HMQH,≤ 0.25
5,KLKW,≤ 0.25
6,PRPN,≤ 0.25
7,HGKN,≤ 0.25
8,DGAE,≤ 0.25
9,LTCW,≤ 0.25
10,NEFR,≤ 0.25
11,MLSM,10.3
12,DRGC,≤ 0.25
13,RAPC,≤ 0.25
14,SDDW,≤ 0.25
15,KGYG,≤ 0.25
16,MNLR,≤ 0.25
17,RRDG,≤ 0.25
18,RFQR,≤ 0.25
19,YCIM,≤ 0.25
20,QSRY,≤ 0.25
21,DLMQ,≤ 0.25
22,NRKN,≤ 0.25
23,TKFF,1.54
24,HFMS,≤ 0.25

row,Variant,enrichment ratio
1,RVCL,≤ 0.25
2,ARRG,≤ 0.25
3,HEDS,≤ 0.25
4,VSRG,≤ 0.25
5,DLYV,≤ 0.25
6,AHFQ,≤ 0.25
7,YTFC,≤ 0.25
8,HIYF,≤ 0.25
9,ERFI,≤ 0.25
10,GTVM,36.9
11,PEDT,≤ 0.25
12,NQLY,≤ 0.25
13,HFLD,≤ 0.25
14,NLGH,≤ 0.25
15,FQAM,≤ 0.25
16,WQWY,≤ 0.25
17,DHIL,≤ 0.25
18,AKDY,≤ 0.25
19,RQSL,≤ 0.25
20,PQLQ,≤ 0.25
21,DSAT,≤ 0.25
22,LQIH,≤ 0.25
23,GNAI,7.21
24,HPHQ,≤ 0.25

row,Variant,enrichment ratio
1,AFDE,≤ 0.25
2,SDQE,≤ 0.25
3,TTWQ,1.53
4,WKNP,≤ 0.25
5,VDVR,0.427
6,TDTQ,1.65
7,LLNI,≤ 0.25
8,TETQ,0.343
9,LEFP,≤ 0.25
10,ESHR,1.01
11,RHAK,≤ 0.25
12,VFNT,≤ 0.25
13,TGMA,26.1
14,FSQA,≤ 0.25
15,PMLY,≤ 0.25
16,IQDQ,≤ 0.25
17,PKMK,≤ 0.25
18,GRPR,≤ 0.25
19,NHRA,≤ 0.25
20,STET,≤ 0.25
21,KMWV,≤ 0.25
22,KYNR,≤ 0.25
23,NQGI,≤ 0.25
24,YVMD,≤ 0.25

row,Variant,enrichment ratio
1,GWQI,≤ 0.25
2,IDIQ,≤ 0.25
3,PPPQ,≤ 0.25
4,HNFC,≤ 0.25
5,PIHA,≤ 0.25
6,YCGT,≤ 0.25
7,HLAG,≤ 0.25
8,RNKL,≤ 0.25
9,GKWF,≤ 0.25
10,NHVW,≤ 0.25
11,SLDM,≤ 0.25
12,PWGN,≤ 0.25
13,SNCK,0.609
14,FINH,≤ 0.25
15,MHLH,≤ 0.25
16,YACH,3.26
17,FFVS,≤ 0.25
18,ESEE,≤ 0.25
19,YVFR,≤ 0.25
20,VSFC,≤ 0.25
21,TRVV,14.5
22,ADGL,≤ 0.25
23,WHDH,≤ 0.25
24,TNTQ,9.28

row,Variant,enrichment ratio
1,ADGP,≤ 0.25
2,FNGN,≤ 0.25
3,SNCH,7.35
4,VHIE,≤ 0.25
5,ILED,≤ 0.25
6,NKHT,≤ 0.25
7,IMQP,≤ 0.25
8,DYFE,≤ 0.25
9,DRTI,≤ 0.25
10,LYKP,≤ 0.25
11,PGFA,≤ 0.25
12,DAFY,≤ 0.25
13,DSYA,≤ 0.25
14,DIPA,≤ 0.25
15,FKMG,≤ 0.25
16,KVNQ,≤ 0.25
17,AHDW,≤ 0.25
18,FQKW,≤ 0.25
19,ARTG,≤ 0.25
20,NRDK,≤ 0.25
21,NDHV,≤ 0.25
22,LRIW,≤ 0.25
23,YVKF,≤ 0.25
24,SFQS,≤ 0.25

row,Variant,enrichment ratio
1,MFPT,≤ 0.25
2,IQHS,≤ 0.25
3,MHFN,≤ 0.25
4,MYSD,≤ 0.25
5,ALRR,≤ 0.25
6,IKKM,≤ 0.25
7,SVAY,8.16
8,NAQK,≤ 0.25
9,HKTQ,≤ 0.25
10,RKYM,≤ 0.25
11,VQYK,≤ 0.25
12,DIVK,≤ 0.25
13,EFGI,≤ 0.25
14,EIAH,≤ 0.25
15,PLGT,≤ 0.25
16,RADQ,≤ 0.25
17,NMYH,≤ 0.25
18,DDSV,≤ 0.25
19,MYRQ,≤ 0.25
20,AYQL,≤ 0.25
21,DGTT,≤ 0.25
22,IPTA,≤ 0.25
23,NAEF,≤ 0.25
24,DGKK,≤ 0.25

row,Variant,enrichment ratio
1,HITH,≤ 0.25
2,KYDM,≤ 0.25
3,HYEH,≤ 0.25
4,DWLF,≤ 0.25
5,NWTI,≤ 0.25
6,FNPH,≤ 0.25
7,WKAY,≤ 0.25
8,RSWI,≤ 0.25
9,FTVK,≤ 0.25
10,VVIS,≤ 0.25
11,EGRP,≤ 0.25
12,RMWM,≤ 0.25
13,VEIF,≤ 0.25
14,KLMV,≤ 0.25
15,LYFH,≤ 0.25
16,YLPV,≤ 0.25
17,FEQV,≤ 0.25
18,YERH,≤ 0.25
19,MPEY,≤ 0.25
20,RRAA,≤ 0.25
21,HTTP,≤ 0.25
22,NYTI,≤ 0.25
23,LGNS,≤ 0.25
24,EAMT,≤ 0.25

row,Variant,enrichment ratio
1,EGWV,≤ 0.25
2,ASEC,≤ 0.25
3,EFPE,≤ 0.25
4,TEKL,≤ 0.25
5,DHKV,≤ 0.25
6,PVVN,≤ 0.25
7,RVVR,≤ 0.25
8,PMIT,≤ 0.25
9,FVPI,≤ 0.25
10,RQAN,≤ 0.25
11,TLII,≤ 0.25
12,FWGI,≤ 0.25
13,EFWK,≤ 0.25
14,QSPC,≤ 0.25
15,IQYE,≤ 0.25
16,ANDN,≤ 0.25
17,WGYW,≤ 0.25
18,TGLR,1.32
19,ELRP,≤ 0.25
20,FGFR,≤ 0.25
21,DGAM,≤ 0.25
22,LDGG,≤ 0.25
23,FDWV,0.293
24,PLRI,≤ 0.25

row,Variant,enrichment ratio
1,LKDR,≤ 0.25
2,HSNS,≤ 0.25
3,PSWP,≤ 0.25
4,TEWH,35.2
5,EKYT,≤ 0.25
6,LAKY,≤ 0.25
7,FGYG,≤ 0.25
8,EYSG,≤ 0.25
9,RVRT,≤ 0.25
10,AESI,25.1
11,QPNS,≤ 0.25
12,IYML,≤ 0.25
13,SFRP,≤ 0.25
14,QQSA,≤ 0.25
15,VIWK,≤ 0.25
16,AVHM,≤ 0.25
17,RQAT,≤ 0.25
18,AMPC,≤ 0.25
19,VMRW,≤ 0.25
20,WPDC,≤ 0.25
21,TMMS,14.5
22,GKYL,≤ 0.25
23,WCGL,≤ 0.25
24,HLHL,≤ 0.25

row,Variant,enrichment ratio
1,RNDI,≤ 0.25
2,NTLK,≤ 0.25
3,PWDC,≤ 0.25
4,VNDH,≤ 0.25
5,NVHV,≤ 0.25
6,VWEC,≤ 0.25
7,VPTY,≤ 0.25
8,TCFA,≤ 0.25
9,EGFI,≤ 0.25
10,IIGN,≤ 0.25
11,SPHT,≤ 0.25
12,YAYE,≤ 0.25
13,IMGG,≤ 0.25
14,NEDF,≤ 0.25
15,IKLG,≤ 0.25
16,WAYW,≤ 0.25
17,IEHF,≤ 0.25
18,PSHV,≤ 0.25
19,GLSM,12.3
20,LRYL,≤ 0.25
21,KGRC,≤ 0.25
22,PRAK,≤ 0.25
23,QGWS,20.8
24,YPIP,≤ 0.25

row,Variant,enrichment ratio
1,VAYY,≤ 0.25
2,TRMK,≤ 0.25
3,ESRC,≤ 0.25
4,FEND,≤ 0.25
5,KTEA,≤ 0.25
6,YPCC,≤ 0.25
7,SAGM,12.9
8,PPCD,≤ 0.25
9,DWFP,≤ 0.25
10,VSIM,5.33
11,HFHP,≤ 0.25
12,WVLM,≤ 0.25
13,YDRN,≤ 0.25
14,NALH,≤ 0.25
15,IKCL,≤ 0.25
16,AMHG,≤ 0.25
17,RWNT,≤ 0.25
18,DQAL,≤ 0.25
19,NDVM,≤ 0.25
20,SWFL,≤ 0.25
21,ISHM,≤ 0.25
22,MGSW,≤ 0.25
23,DESF,≤ 0.25
24,GVTM,8.91

row,Variant,enrichment ratio
1,NLLS,≤ 0.25
2,RNIV,≤ 0.25
3,PDLY,0.513
4,SDER,≤ 0.25
5,YRWE,≤ 0.25
6,IGVY,≤ 0.25
7,YHVY,≤ 0.25
8,TQLT,18.8
9,GADQ,≤ 0.25
10,TVSR,11.1
11,IIRF,≤ 0.25
12,YKLY,≤ 0.25
13,EILM,≤ 0.25
14,DWKN,≤ 0.25
15,EAGC,≤ 0.25
16,FKPS,≤ 0.25
17,AAVW,≤ 0.25
18,PDNA,≤ 0.25
